Experimental data published in PubChem BioAssay AID485364 (National Center for Advancing Translational Sciences (NCATS), 2010).
The campaign covered roughly 360,000 compounds. About 11,000 (3.1%) were called active. Inconclusive means that the source gave no clear call. Such entries were picked first, then a sample of the others. Calls follow the shape of the dose curve; as a rule, active = well fitted inhibition curve with a large enough effect; inconclusive = small, poorly fitted or top-dose-only effect; inactive = no such curve, though single readings can be large or run the other way. No potency is given beside an inconclusive call; the fits are too rough.
% is scaled to controls: 0 for no effect and ±100 for the full control effect; potency is read from the fitted curve at half-maximal effect; tags tell the direction and shape of the fitted curve.
Also: nearly all actives have a fitted effect of over 60% in size.

These compounds were tested against Schistosoma mansoni thioredoxin glutathione reductase (TGR) (UniProt Q962Y6) (assay: qHTS Assay for the Inhibitors of Schistosoma Mansoni Peroxiredoxins). Conditions: purified TGR, DTNB reduction, TNB absorbance 405 nm; activity change, negative = inhibition: at 114 µM (top of the series) unless noted.
Procedure, shortened: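 Kinetic colorimetric format: TGR-catalysed, NADPH-driven DTNB reduction monitored via TNB absorbance. Enzyme dispensed at 20 nM; compound exposure 15 min at room temperature before reaction start.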
For `O=C1CC(=O)N(Cc2ccco2)C(=S)N1`, the Potency was active: 1.78 µM.
`CCc1nc(SCC(=O)NCc2ccco2)c2c(=O)n(C)c(=O)n(C)c2n1` was tested, and the Potency was inconclusive [inhibitor, partial curve].
For `O=C(Nc1ccc(S(=O)(=O)N(Cc2ccccc2)c2ccccc2)cc1)c1ccc(F)cc1`, the “activity change, negative = inhibition” value was inactive: 1.97%.
With `CN(C)/C=N/c1ncc(C(=O)c2ccc3ccccc3c2)s1` the “activity change, negative = inhibition” value was inactive: -29.4%.
In the case of `Cc1nnc(C)n1/N=C/c1c(O)ccc2ccccc12`, the Potency is reported as active: 28.2 µM.
With `COc1ccc(S(=O)(=O)N2CCN(C(=O)/C=C/c3ccco3)CC2)cc1` the Potency was active: 8.91 µM.
In the case of `Cc1cc2c(cc1S(=O)(=O)Nc1cccc(Cl)c1C)OCCN2C`, the Potency is reported as inconclusive [inhibitor, single point].
`O=C(O)Cc1ccc(NC(=O)c2ccc(NC(=O)c3ccco3)cc2)cc1` was tested, and the Potency was inconclusive [inhibitor, partial curve].
In the case of `O=C(O)/C(=C\c1ccc(Cl)c([N+](=O)[O-])c1)c1ccc(S(=O)(=O)N2CCCCC2)s1`, the Potency is reported as inconclusive [inhibitor, partial curve].
With `CCOC(=O)CS(=O)(=O)c1ccccc1` the Potency was inconclusive [inhibitor, full curve, poor fit].
In the case of `CCCNC(=O)CSc1cn(CC(=O)N2CCCCCC2)c2ccccc12`, the “activity change, negative = inhibition” value is reported as inactive: -4.08%.
`CCc1ccc(NC(=O)CCC(=O)N2CCSc3ccccc32)cc1` was tested, and the “activity change, negative = inhibition” value was inactive: -1.76%.
In the case of `N#Cc1ccc(OCC(=O)N2CCN(c3ccc(C(F)(F)F)cn3)CC2)cc1`, the “activity change, negative = inhibition” value is reported as inactive: 7.69%.
In the case of `COc1ccc(CNC(=O)c2ccc(-c3nc(CS(=O)c4ccc(C)cc4)c(C)o3)cc2)cc1` (stereo not given), the Potency is reported as inconclusive [inhibitor, partial curve].
For `CCCN(C(=O)COC(=O)CCOc1ccccc1)c1c(N)n(Cc2ccccc2)c(=O)[nH]c1=O`, the “activity change, negative = inhibition” value was inactive: -1.41%.
For `O=C1NC(=O)C(C/C=C/c2ccccc2)C(=O)N1`, the Potency was inconclusive [inhibitor, full curve].
`O=C(NCC1CCCO1)c1cc2ccccc2o1` (stereo not given) was tested, and the Potency was inconclusive [inhibitor, full curve].
In the case of `Cc1cccc(CNc2ncnc3ccc(-c4cccc(C)c4)cc23)c1`, the “activity change, negative = inhibition” value is reported as inactive: 4.67%.
`O=C(NCC(=O)N1CCN(Cc2ccccc2)CC1)c1ccc(Br)cc1` was tested, and the “activity change, negative = inhibition” value was inactive: -17%.
With `CCC1Sc2ccc(S(=O)(=O)CCC(=O)NCc3cccs3)cc2NC1=O` (stereo not given) the Potency was inconclusive [inhibitor, partial curve, poor fit].
In the case of `O=c1c(-c2nc3ccccc3o2)c2oc3ccccc3n2c2ccccc12`, the Potency is reported as inconclusive [inhibitor, partial curve].
`COc1ccc(CN2CCN(CCCc3ccccc3)C(CCO)C2)c(O)c1` (stereo not given) was tested, and the Potency was inconclusive [inhibitor, single point].
With `CCCCn1c(SCC(=O)NCC2CCCO2)nc2ccc(N3CCOCC3)cc2c1=O` (stereo not given) the Potency was inconclusive [inhibitor, partial curve].
For `CC(C)CNC1=CC(=O)CC(c2ccco2)C1` (stereo not given), the Potency was inconclusive [inhibitor, partial curve].
With `CC(C)=CCN1CCN(Cc2coc3ccc(C)cc3c2=O)CC1CCO` (stereo not given) the Potency was inconclusive [inhibitor, partial curve].
`CCN(c1ccc(OC)cc1)S(=O)(=O)c1csc(C(=O)N2CCCC2)c1` was tested, and the “activity change, negative = inhibition” value was inactive: -10.4%.
With `COc1cc(N2Cc3ccccc3C2)ccc1C=O` the Potency was inconclusive [inhibitor, partial curve].
For `O=C(CNC(=O)c1ccccc1F)OCCOc1cccc(Cl)c1`, the Potency was inconclusive [inhibitor, partial curve].
For `CCCn1c(SCC(=O)c2ccc3c(c2)OCCO3)nnc1-c1ccco1`, the Potency was inconclusive [inhibitor, partial curve].
With `COCC(C)OC(=O)c1c(N)n(Cc2ccco2)c2nc3ccccc3nc12` (stereo not given) the Potency was active: 10 µM.
`O=C(Nc1ccc([N+](=O)[O-])cc1)c1ccccc1` was tested, and the “activity change, negative = inhibition” value was inactive: 5.63%.
For `O=c1c([N+](=O)[O-])cc(C(F)(F)F)cn1Cc1cccc(Cl)c1`, the Potency was inconclusive [inhibitor, partial curve].
With `CC(=O)Nc1ccc(N2C(=O)c3cccc4c(O)ccc(c34)C2=O)cc1` the Potency was inconclusive [inhibitor, partial curve].
`Cc1ccc(SC2=C(Sc3ccc(C)cc3)C(=O)c3ccccc3C2=O)cc1` was tested, and the Potency was inconclusive [inhibitor, full curve, poor fit].
`CC(C)(C)c1ccc(C(=O)NC(=S)NCc2ccco2)cc1` was tested, and the Potency was inconclusive [inhibitor, full curve].
With `O=C(NC1(C(F)(F)F)NC(=O)N(C2CCCCC2)C1=O)c1cccs1` (stereo not given) the Potency was inconclusive [inhibitor, partial curve, poor fit].
With `CC(C)NCC#CCOc1ccc(Cl)cc1` the Potency was inconclusive [inhibitor, full curve].
For `Cc1ccccc1CNC(=O)C(=O)NCC(c1cccs1)S(=O)(=O)c1ccc(Cl)cc1` (stereo not given), the Potency was inconclusive [inhibitor, partial curve].
With `N#CC1=C(N)Oc2cc(O)c(Cl)cc2C1c1cccnc1` (stereo not given) the Potency was active: 31.6 µM.
With `O=C(Nc1ccc(Br)cc1)c1ccco1` the “activity change, negative = inhibition” value was inactive: -5.18%.
With `O=C(Cn1c(=O)c2cccn2c2ccc(F)cc21)N1CCN(c2ccccc2)CC1` the Potency was inconclusive [inhibitor, single point].
`O=C(NCc1ccco1)c1ccc2c(c1)N(Cc1ccc(Cl)cc1)CCS2` was tested, and the Potency was inconclusive [inhibitor, partial curve].
With `CCOC(=O)c1cc(C)sc1/N=C/C1C(=O)CCCC1=O` the Potency was inconclusive [inhibitor, full curve, poor fit].
For `O=C(C1CC1)N1c2ccccc2Sc2ccccc21`, the Potency was inconclusive [inhibitor, single point].
In the case of `Cc1cccc(C#Cc2ccccc2)n1`, the Potency is reported as inconclusive [inhibitor, partial curve].
With `CCn1c(Cc2ccccc2)nnc1SCC(=O)Nc1ccc2c(c1)OCO2` the Potency was inconclusive [inhibitor, full curve, poor fit].
`C#CCOCCOCCOCCNc1nc(N2CCN(C(=O)[C@H](CCC(=O)O)n3cc(C(N)CC(C)C)nn3)CC2)nc(N2CCN(C(=O)[C@H](Cc3cc4ccccc4[nH]3)n3cc(C(N)CC(C)C)nn3)CC2)n1` (stereo not given in full) was tested, and the Potency was inconclusive [inhibitor, partial curve].
With `COC(=O)C1=C(C)N(Cc2cccnc2)C(=O)C1` the Potency was inconclusive [inhibitor, partial curve].
With `Cc1ccc(Cn2ncc(Cl)c(Cl)c2=O)cc1` the Potency was active: 3.55 µM.
In the case of `CCOc1cccc(C(=O)Nc2ccc3oc(Cc4ccc(Cl)cc4)nc3c2)c1`, the “activity change, negative = inhibition” value is reported as inactive: 3.6%.
`OCCCc1nc2n(n1)C(c1ccccc1)C=C(c1ccccc1)N2` (stereo not given) was tested, and the Potency was active: 25.1 µM.
In the case of `CCOC(=O)COn1c(=O)c(-c2ccc(OC)c(OC)c2)[n+]([O-])c2ccccc21`, the Potency is reported as inconclusive [inhibitor, partial curve].
With `COCCCn1c(N)c(C(=O)OC(C)COC)c2nc3ccccc3nc21` (stereo not given) the “activity change, negative = inhibition” value was inactive: -16.6%.
`Cc1[nH]c2ccccc2c1C(=O)COC(=O)C1CCC1` was tested, and the “activity change, negative = inhibition” value was inactive: 3.06%.
With `COc1cccc(-c2cc(C(F)(F)F)n3ncc(C(=O)NCC4CCCO4)c3n2)c1` (stereo not given) the Potency was inconclusive [inhibitor, full curve, poor fit].
For `Cc1cc(C#N)c(C)c(SCc2[nH]nc3c2C(c2ccccc2)C(C#N)=C(N)O3)n1` (stereo not given), the Potency was inconclusive [inhibitor, partial curve].
In the case of `O=C(NCc1ccccc1)c1ccc(CS(=O)(=O)Cc2ccccc2F)o1`, the Potency is reported as inconclusive [inhibitor, partial curve].
`COc1ccc2oc(-c3ccc(C)c(NC(=O)CSc4ccc(Cl)cc4)c3)nc2c1` was tested, and the Potency was “inactive”.
In the case of `COC(=O)C1=C(C)NC(C)=C(C(=O)OC)C1c1ccc2ccccc2n1`, the “activity change, negative = inhibition” value is reported as inactive: -2.98%.
For `Cc1cc2c(NC(=O)CC(C)(C)CC(=O)O)cccc2nn1`, the Potency was inconclusive [inhibitor, partial curve].
With `CC(=O)N(c1nnc(-c2ccc(C)cc2)s1)C1CCCC1` the Potency was inconclusive [inhibitor, full curve, poor fit].
`COCC(=O)Oc1c(S(=O)(=O)c2ccc(C)cc2)c(C)nn1C(C)(C)C` was tested, and the Potency was inconclusive [inhibitor, partial curve].
In the case of `COc1ccc(Cn2c(O)c(/C=N/NC(=O)c3ccccc3O)c(=O)[nH]c2=O)cc1`, the Potency is reported as inconclusive [inhibitor, partial curve].
In the case of `COC(=O)c1ccccc1NC(=O)CN1CCC(NC(=O)c2ccccc2C)CC1`, the Potency is reported as inconclusive [inhibitor, single point].
For `O=C(CCC1N=C2c3ccccc3N=C(SCC(=O)NCc3ccco3)N2C1=O)NCc1ccco1` (stereo not given), the Potency was inconclusive [inhibitor, partial curve].
With `CSc1ccc(C2N=C(c3ccccc3)NO2)cc1` (stereo not given) the Potency was inconclusive [inhibitor, partial curve].
`O=C1CCN(S(=O)(=O)c2cc(C(F)(F)F)ccc2Cl)CC1` was tested, and the “activity change, negative = inhibition” value was inactive: -25.8%.
For `Cc1ccc(NC(=O)C(=O)NCCc2csc3nc(-c4ccccc4C)nn23)cc1Cl`, the “activity change, negative = inhibition” value was inactive: -0.866%.
In the case of `Cc1cccc2c(N=Nc3ccccc3)c(O)[nH]c12`, the Potency is reported as inconclusive [inhibitor, partial curve].
In the case of `COCCn1c(SCC(=O)Nc2ccc(C(F)(F)F)cc2)nc2c([nH]c3ccccc32)c1=O`, the “activity change, negative = inhibition” value is reported as inactive: -1.31%.
